Here are results for 16 compounds from PubChem BioAssay AID1745853 (National Center for Advancing Translational Sciences (NCATS), 2022).

Some of the results follow. Further columns of the screen follow, without active or inactive calls.

Common to all, as to experiment: Primary Screen for Target Class Profiling of Small Molecule Inhibitors of Methyltransferases
Assay [1] addresses Glycine N-methyltransferase (Homo sapiens) (UniProt Q14749). The conditions noted are these: purified enzyme, MTase-Glo SAH luminescence; measured here: GNMT inhibition; at 40 µM; stronger effect = lower value. Put shortly: (§1)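 Each enzyme was reacted with SAM and its substrate, with compounds tested once at 40 uM; SAH formed was read by MTase-Glo luminescence.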
In assay [2] the target is Guanidinoacetate N-methyltransferase (Homo sapiens) (UniProt Q14353). The conditions noted are these: purified enzyme, MTase-Glo SAH luminescence; measured here: GAMT inhibition; at 40 µM; stronger effect = lower value. Put shortly:
as §1

Assay [3] has as its target Histamine N-methyltransferase (Homo sapiens) (UniProt P50135). The conditions noted are these: purified enzyme, MTase-Glo SAH luminescence; measured here: HNMT inhibition; at 40 µM; stronger effect = lower value. Put shortly:
as §1

Assay [4] deals with Nicotinamide N-methyltransferase (Homo sapiens) (UniProt P40261). The conditions noted are these: purified enzyme, MTase-Glo SAH luminescence; measured here: NNMT inhibition; at 40 µM; stronger effect = lower value. Put shortly:
as §1

For assay [5], the target named is Phenylethanolamine N-methyltransferase (Homo sapiens) (UniProt P11086). The conditions noted are these: purified enzyme, MTase-Glo SAH luminescence; measured here: PNMT inhibition; at 40 µM; stronger effect = lower value. Put shortly: as §1
% is scaled to controls: 0 for no effect and ±100 for the full control effect.

With `CSc1ccc(-c2cccc(C(=O)NCC(=O)N3CCCC3)c2)cc1`, the activity change, negative = inhibition in assay [1] was -11.8%; in assay [2], -8.4%; in assay [3], -6.56%; in assay [4], -16.8%; in assay [5] it was -11.4%.
As for `O=C(Cn1nc2n(Cc3ccc(F)cc3)c(=O)c3ccccc3n2c1=O)c1ccc(F)cc1`, the activity change, negative = inhibition in assay [1] was found to be 7.16%; in assay [2], 2.48%; in assay [3], 11.4%; in assay [4], 5.67%; in assay [5], 7.52%.
Consider `N=c1nc2n(cc1F)C1OC(CO)C(O)C1O2` (stereo not given), for which the activity change, negative = inhibition in assay [1] is 5.9%; in assay [2] it was 8%; in assay [3], 3.22%; in assay [4] it was -6.78%; in assay [5] it was 2.45%.
In the case of `CC1CCCC(NC(=O)C2(C)Cn3c(nc4ccccc43)C(=O)N2CC2CCCO2)C1C` (stereo not given), the activity change, negative = inhibition in assay [1] was 5.7%; in assay [2], 0%; in assay [3], 4.18%; in assay [4] it was 5.71%; in assay [5], 0.921%.
On to `COc1ccc(N2C(=O)c3cc4sccc4n3CC2(C)C(=O)NC2CCCCC2)cc1OC` (stereo not given), for which the activity change, negative = inhibition is -0.57% in assay [1]; 0% in assay [2]; 4.12% in assay [3]; 6.44% in assay [4]; 1.14% in assay [5].
Consider `Cc1noc(C)c1S(=O)(=O)N1CCC2(C1)N=C(c1ccccn1)C(=O)N2` (stereo not given), for which the activity change, negative = inhibition in assay [1] is -4.05%; in assay [2], -6%; in assay [3], -1.24%; in assay [4], -12.5%; in assay [5], -6.54%.
As for `Cc1cnc(C2CC2)n1C1CCN(S(=O)(=O)c2ccc3c(c2)OCCO3)CC1`, the activity change, negative = inhibition is -4.41% in assay [1]; 0% in assay [2]; -8.51% in assay [3]; -31% in assay [4]; -0.663% in assay [5].
Consider `CO[C@H]1C=C2C(CC[C@H](O[C@@H]3O[C@H](CO)[C@@H](O)[C@@H](O)[C@H]3O)C2(C)C)[C@]2(C)CC[C@]3(C)C([C@H](C)C(O)C(C=C(C)C)O[C@@H]4O[C@H](CO)[C@@H](O)[C@@H](O)[C@H]4O)CC[C@@]3(C)C12` (stereo not given in full), for which the activity change, negative = inhibition in assay [1] is 0%; in assay [2], 8.77%; in assay [3], 5.52%; in assay [4] it was -6.19%; in assay [5] it was 5.65%.
Regarding `CCOc1cccc(C2c3cccn3-c3sc4c(c3CN2C(=O)Nc2ccc(OC)cc2OC)CCCC4)c1` (stereo not given), the activity change, negative = inhibition is -6.53% in assay [1]; -1.61% in assay [2]; -3.04% in assay [3]; -8.68% in assay [4]; -2.65% in assay [5].
For the compound `On1ncc(C2CCNCC2)c1-c1cccc(-c2ccccc2)c1`, the activity change, negative = inhibition in assay [1] is -7.09%; in assay [2], -3.63%; in assay [3], 6.3%; in assay [4], -16.1%; in assay [5], -0.106%.
In the same order, the values of `COc1ccc2cc3n(c2c1)CC(C)(C(=O)NC1CCCC1)N(Cc1ccccc1)C3=O` (stereo not given) are 1.11%, -4.06%, 2.77%, -7.68% and -3%.
Consider `CC(C)CNC(=O)N1CCCCC1c1nc(CCOc2ccc(F)cc2)no1` (stereo not given), for which the activity change, negative = inhibition in assay [1] is -1%; in assay [2] it was -2.63%; in assay [3], -1.93%; in assay [4], -6%; in assay [5], -9.31%.
With `COc1ccccc1CN1C(=O)c2cc3oc(C)cc3n2CC1(C)C(=O)NC1CCCCCCC1` (stereo not given), the activity change, negative = inhibition stood at 1.7% in assay [1]; 0% in assay [2]; 9.92% in assay [3]; 6.86% in assay [4]; 0.016% in assay [5].
Consider `CC1CCCCN1CCCN1C(=O)c2ccc(-c3ccco3)n2CC1(C)C(=O)NC1CCCCCC1` (stereo not given), for which the activity change, negative = inhibition in assay [1] is -4.58%; in assay [2] it was 2.85%; in assay [3], -6.97%; in assay [4], -7.55%; in assay [5], -3.16%.
As for `COc1ccc(CC(=O)NC[C@@H]2CC[C@H]3C[C@@H]2C3(C)C)cc1`, the activity change, negative = inhibition in assay [1] is -7.48%; in assay [2], -7.38%; in assay [3], -4.76%; in assay [4], -26.9%; in assay [5] it was -7.59%.
Turning to `Cc1ccc(Cn2nc3n(C(C)C)c(=O)c4ccc(C(=O)NCC(C)C)cc4n3c2=O)cc1`, the activity change, negative = inhibition in assay [1] worked out at 3.97%; in assay [2], 0%; in assay [3], 8.62%; in assay [4], 4.15%; in assay [5], 6.05%.
